Experimental data reported in PubChem BioAssay AID1240 (Sanford-Burnham Center for Chemical Genomics, 2008).
The campaign covered roughly 50,000 compounds. About 800 (1.6%) showed an effect of 50% or more. This is one part of the list.

The compounds below were run against Bcl-2-like protein 10 (Homo sapiens) (UniProt Q9HD36) (assay: Phenotype converters, Bcl-B/TR3 peptide binding displacement, primary biochemical FP (AID 1240;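 also: 0% = Bcl-B with tracer peptide and DMSO and 100% = tracer peptide lacking Bcl-B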)). Settings: GST-Bcl-B / FITC-TR3 peptide fluorescence polarization; stronger effect = higher value; compound at 3.75 mg/L.
UniProt Q9HD36, sequence (Q9HD36 whole entry, looked up): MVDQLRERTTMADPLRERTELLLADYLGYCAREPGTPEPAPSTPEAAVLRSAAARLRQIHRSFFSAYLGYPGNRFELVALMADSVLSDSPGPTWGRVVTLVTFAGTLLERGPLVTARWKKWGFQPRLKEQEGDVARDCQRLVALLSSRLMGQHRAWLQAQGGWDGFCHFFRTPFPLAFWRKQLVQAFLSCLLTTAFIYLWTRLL

| Compound | displacement [%] |
| --- | --- |
| O=C(CSc1nc2ccccc2[nH]1)N/N=C/c1cccc(Cl)c1Cl | -5.4 |
| CN1C(=O)/C(=C\c2cccc(OCc3cccc4ccccc34)c2)SC1=S | 8.7 |
| COc1ccc(C2CC(C(F)(F)F)n3nc(C(N)=O)c(Cl)c3N2)cc1OC (configuration not stated) | 4.1 |
| Cc1ccc(-c2nc3ccccc3o2)cc1NC(=O)c1ccc(-c2ccc([N+](=O)[O-])cc2)o1 | 28.3 |
| CC1(C)CC(=O)C(C(C2=C(O)CC(C)(C)CC2=O)c2ccc(Cl)cc2Cl)C(=O)C1 (configuration not stated) | -1.9 |
| COc1ccc(C2(CNCC(O)COc3ccccc3)CCCC2)cc1OC (configuration not stated) | -14.7 |
| COc1ccc(N(CC(=O)NCc2ccccc2)S(=O)(=O)c2ccc(C)c([N+](=O)[O-])c2)cc1 | 10.1 |
| Cc1ccc(C(=O)CCNc2ccc(C)c(C)c2)o1 | 6.8 |
| C/C(=C1/C(=O)N(c2nc3ccccc3s2)N=C1CSc1ccc(Cl)cc1)N1CCOCC1 | -22.3 |
| CC(=O)C1=C(C)NC(=O)NC1c1ccccc1OCc1ccccc1 (configuration not stated) | 0.1 |
| COc1cccc2cc(C(=O)Nc3ccc(C(C)=O)cc3)c(=O)oc12 | 16 |
| Cc1ccc(N2NC(=O)/C(=C/c3ccc(N4CCOCC4)cc3)C2=O)cc1C | 13.3 |
| O=C1/C(=C/c2ccc(O)c(O)c2)SC(=S)N1c1ccc(O)cc1 | -12.9 |
| CCOc1ccc2nc(NC(=O)c3ccc(OCC(C)C)cc3)sc2c1 | 4 |
| COc1ccc(OC)c(N2C(=O)CC(Sc3nc4ccccc4s3)C2=O)c1 (configuration not stated) | 1.7 |
| CCOc1ccc(C(=O)Nc2cc(-c3nc4ncccc4o3)ccc2C)cc1[N+](=O)[O-] | 4.5 |
| CCOC(=O)C(CNC(=O)c1ccccc1)(Oc1ccc(Cl)cc1)C(=O)OCC | 15.4 |
| COc1cc(C(=O)NC(NC(=S)Nc2cc(Cl)ccc2Cl)C(Cl)(Cl)Cl)cc(OC)c1OC (configuration not stated) | 12.1 |
| COc1ccc(C(=O)Nc2ccc(-c3nc4cc(C)ccc4o3)cc2)cc1Br | -5 |
| O=C(Nc1nc2ccc(Cl)cc2s1)c1ccc(Br)cc1 | -3.6 |
| COc1ccc(NS(=O)(=O)c2ccc(Cl)cc2)cc1Cl | -1.1 |
| COc1ccc(C(NC(=O)Cc2ccccc2)c2c(OC(C)=O)ccc3ccccc23)cc1OC (configuration not stated) | -16.2 |
| COc1ccc(CN2CCN(Cc3cc(Br)ccc3O)CC2)c(OC)c1 | 1.4 |

| Compound | displacement [%] |
| --- | --- |
| CC(C)(C)c1cc(CN2CCN(CCN)CC2)cc(C(C)(C)C)c1O | 5.5 |
| CCCCc1c(C)nc(N/N=C/c2ccc(OC)cc2OC)[nH]c1=O | -1.9 |
| Cc1cc(Cl)ccc1NC(=O)COc1cc(C)c(Cl)c(C)c1 | 5.8 |
| COc1cc(C2/C(=C(\O)c3ccc([N+](=O)[O-])cc3)C(=O)C(=O)N2CCCCCC(=O)O)ccc1O (configuration not stated) | -7.1 |
| O=C(/C=C/c1ccc(S(=O)(=O)Nc2ccccc2)cc1)C1C(=O)c2ccccc2C1=O | 31.1 |
| C=CCN1C(=O)/C(=C\c2ccc(-c3cc(Cl)ccc3Cl)o2)SC1=S | 65.4 |
| CC(=O)c1cc(NS(=O)(=O)c2ccc(C)cc2)ccc1O | -14.3 |
| CCOC(=O)C1=C(C)N=c2s/c(=C\c3ccccc3F)c(=O)n2C1c1ccc(OC)c(OC)c1 (configuration not stated) | 6.3 |
| Cc1n[nH]c(C)c1CCCCCOc1ccc([N+](=O)[O-])cc1 | 9 |
| O=Cc1ccc(OCc2ccccc2F)cc1 | -2.7 |
| CCOC(=O)c1c(C)oc2ccc(OC(=O)c3cc4ccccc4o3)cc12 | 9.8 |
| CCc1cccc(C)c1NC(=O)CCCC(=O)O | 9 |
| COCCCNC(=O)C(=O)NC(C)C | 11.3 |
| O=C1NC(=Nc2ccc(F)cc2)S/C1=C/c1ccc(Br)cc1 | 8 |
| C/C(CCc1ccc2c(c1)OCO2)=N\N=C1/NC(=O)CC(C(=O)N2CCN(c3ccc([N+](=O)[O-])cc3)CC2)S1 (configuration not stated) | -13.7 |
| CCC(C)NC(=O)Cn1nc(C(F)(F)F)c(Cl)c1C (configuration not stated) | 8.5 |
| O=C(CCc1ccccc1)Nc1ccc(Br)cn1 | 8.5 |
| CC1=C(C(=O)OCc2ccccc2)C(c2ccc(F)c(F)c2)C2=C(CC(C)(C)CC2=O)N1 (configuration not stated) | -3.6 |
| O=C(O)C(Cc1ccccc1)N1C(=O)/C(=C/c2cccs2)SC1=S (configuration not stated) | 5.9 |
| O=C(C[n+]1cccc(NC(=O)c2ccccc2)c1)c1ccc2c(c1)Cc1ccccc1-2 | -7.8 |
| O=C(Cn1c(NCCCO)nc2ccccc21)c1ccc(Br)s1 | 8.7 |
| CC(=O)Nc1ccccc1NC(=O)COc1ccccc1 | -4.2 |
| Cc1nc(SCc2ccccc2)c(C#N)c(C)c1C | 2 |

| Compound | displacement [%] |
| --- | --- |
| COc1cccc(C(=O)NNC(=O)CCC(=O)O)c1 | 4.8 |
| O=[N+]([O-])c1ccc(OC/C=C/c2cccc([N+](=O)[O-])c2)cc1 | -0.9 |
| COc1ccc(NC(=O)CSCCc2ccccn2)c([N+](=O)[O-])c1 | 10.5 |
| O=C(COc1ccccc1)Nc1ccc(Cc2ccncc2)cc1 | 9.6 |
| O=C1N=C2SC=CN2C(=O)C1Cc1ccccc1 (configuration not stated) | 15 |
| Cc1cc(Cl)ccc1OCC(=O)Nc1ccc(C(N)=O)cc1 | 1.1 |
| Cc1ccc(/C=N/NS(=O)(=O)c2ccc(C)cc2)cc1 | 8 |
| COc1ccc(CN2CCN(C3CCC(c4ccccc4)CC3)CC2)c(OC)c1OC (configuration not stated) | -12 |
| Cc1ccc(S(=O)(=O)/N=C/c2ccc(C(F)(F)F)cc2)cc1 | -6.5 |
| O=C(c1cc2cc([N+](=O)[O-])ccc2oc1=O)N1CCN(C/C=C/c2ccccc2)CC1 | 12.2 |
| COc1cccc(/C=N/Nc2nnc(-c3ccccc3)c(-c3ccccc3)n2)c1O | 5.8 |
| Cc1ccc(-c2cc(C(F)(F)F)n3ncc(C(=O)N(C)Cc4ccccc4)c3n2)cc1 | 13.5 |
| CCOC(=O)c1cc(CC)sc1NC(=O)c1cccs1 | -4.7 |
| COc1ccc(C(=O)n2nnc3ccccc32)cc1 | -1.2 |
| O=[N+]([O-])c1cccc(C2=Nc3ccccc3NC(c3ccccc3)C2)c1 (configuration not stated) | -12.7 |
| O=C1NC(=O)N(c2ccccc2)C(=O)/C1=C\c1ccc(OCc2ccc(F)cc2)cc1 | 0.4 |
| O=C(Nc1nc(-c2ccc(Cl)cc2)cs1)c1sc2ccccc2c1Cl | -12 |
| CCCC(=O)Nc1ccc2c(c1)OCCO2 | -1 |
| COc1cc(OC)cc(C(=O)N2CCN(C)CC2)c1 | -10.5 |
| CCN(CC)C1CC(=O)N(c2ccc(Cl)cc2)C1=O (configuration not stated) | 6.2 |
| COc1ccc(/C(O)=C2\C(=O)C(=O)N(CCc3ccccc3)C2c2ccccc2F)cc1 (configuration not stated) | 0.5 |
